Measurements from the supplement of paper PMC11417369.
± gives the standard deviation of the averaged measurements. The list shows a part of the results.

test system: PfAP2-LT AP2 domain (GST-tagged); assay: gcPBM binding intensity (ln(normalized median fluorescence intensity)); higher = stronger DNA binding
How it was run: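 Each value is the highest Masliner-normalised natural-log median intensity across replicate spots of either orientation of a probe. The probes were primer-extended double-stranded 36-bp intergenic genomic sequences on an Agilent 4 × 180k array, alongside negative controls, exposed for 1 h to GST-tagged P. falciparum DNA-binding domains expressed in E. coli. Bound protein was picked up with Alexa488 anti-GST antibody and scanned at 488 nm.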

| Sequence | gcPBM binding intensity (ln) |
| --- | --- |
| ATATGTAATAATAAATGTACGAAACATTGAACGATG [XGTACX_site1266] | 9.14 ± 0.41 |
| GAATCATCCAAAATTGCATGCAAGGAAGAAGAAAAA [TGCATGCA_site764] | 9.13 ± 0.45 |
| TTTTTATATATCACGTGTACATATTTATTTTTACTC [XGTACX_site8049] | 9.04 ± 0.69 |
| AAATCACCTTAAGAACGTACAAACAGAAAAAAATTA [XGTACX_site4623] | 8.87 ± 0.45 |
| TTTATTATATTTATATGTACTTATATAATATATGCA [XGTACX_site1906] | 8.71 ± 0.3 |
| CTTATGTGTATAAGTAGTACTAAATTAAAATAATAT [XGTACX_site2681] | 8.72 ± 0.49 |
| TTATAAATATAATATTGTACAAAATTTTAACATGTC [XGTACX_site5259] | 8.57 ± 0.47 |
| CGTATGAAACATATATGTACTTATAAAAATATAACC [XGTACX_site7539] | 8.89 ± 0.47 |
| TCATAATGAAAACAAGCACACATACATAAAATAAAA [CACACA_site9069] | 9.22 ± 0.49 |
| ATATGTATTAAGTGTACACATATAATGTATTTTGTT [CACACA_site4177] | 8.99 ± 0.43 |
| TTATTTACCATCTCTACACACAAAAATTGATGTAGA [CACACA_site2811] | 8.85 ± 0.4 |
| TAAATTATATTATGCACACTTAAAAATATATTTAAC [CACACA_site3512] | 8.64 ± 0.36 |
| ATTCCATAAGTAAACACACAAATGCCAAAATTTTAT [CACACA_site7491] | 8.96 ± 0.49 |
| ATTCAAAAAAAATCAACACACAGTTACATAGCTCAA [CACACA_site2234] | 8.86 ± 0.4 |
| ATATATATATATATGTGTACACAAAAAATATTATAT [XGTACX_site5741] | 9.29 ± 0.38 |
| GCACATATATATGAAACACACATGGAAACATCTCTT [CACACA_site3966] | 9.23 ± 0.37 |
| AATCTAATTAAAATCACACATATATTCGTCGTAATA [CACACA_site5855] | 8.69 ± 0.36 |
| ATATATATATATATAACACACGTGTATTTATCTGTA [CACACA_site5922] | 9.53 ± 0.21 |
| AAAAAATTAACGAGTGCACACATATTTAGATAAAAT [CACACA_site8958] | 9.27 ± 0.57 |
| AATGTATATTATTGCACACATATATAAAATTATGCT [CACACA_site1096] | 9.13 ± 0.31 |
| AAAAAAATATAGATCTGTACATATATAAATATATGT [XGTACX_site511] | 8.67 ± 0.48 |
| TCTCTAATTTTTAATACACACAAATAAATAAATAAA [CACACA_site216] | 8.51 ± 0.41 |

| Sequence | gcPBM binding intensity (ln) |
| --- | --- |
| ATATATGTTAATAATTGTACAAATCGATAATATATA [XGTACX_site5076] | 8.9 ± 0.46 |
| ATCTCTATGATATATACACACAAATATACAAAAAAA [CACACA_site6605] | 8.96 ± 0.45 |
| ATTTGTGAATATATTCGGTGAACTTTGTTAACACAT [XGTACX_negctrl_site445] | 8.83 ± 0.38 |
| AACGAAAACACTACGTGTACCAAATGTCCTGCCAAC [XGTACX_site5735] | 9.06 ± 0.42 |
| ATGGAAAAAAAGCATTGTACATTTAAAGAAAAACAG [XGTACX_site6639] | 8.7 ± 0.45 |
| TATTATATTTGTATGTGTACTTATATGGTTGTAATA [XGTACX_site4548] | 8.72 ± 0.54 |
| AAATATTATCAAACATAAATTATTTTTATCCGTATA [CACACA_negctrl_site771] | 8.49 ± 0.52 |
| AAAAAAAAAAAAAACACACACATGCACCTCATATTA [CACACA_site556] | 9.48 ± 0.38 |
| AGGCATAATTAAAAGTAACAATTATGGAAACGGAGT [GTGCAC_negctrl_site623] | 8.94 ± 0.53 |
| TTTATTTATTATTAAAGTACTAAATTATATTATTAT [XGTACX_site2565] | 8.35 ± 0.54 |
| AATTCATATACAAAAAGTACAAACGAAAAATAAAAA [XGTACX_site2900] | 8.82 ± 0.54 |
| TATGTGCACCCATATACACACACAAATACAATGATA [CACACA_site8295] | 9.6 ± 0.3 |
| ATGTTTTATATTATTAATATATATATATATATATAT [CACACA_negctrl_site331] | 9.07 ± 0.33 |
| GTTATATAAAAATATTGTACATTCTATATAAAGTCA [XGTACX_site4418] | 8.46 ± 0.37 |
| AAAAAAAAAAAAAAATGTACATATAAATAAATATAT [XGTACX_site7248] | 8.64 ± 0.61 |
| TAATATCCATATAAAACACACATCAAGGTTGTTAAC [CACACA_site175] | 8.82 ± 0.39 |
| ACAACATAGAGGGGCACACACATATATACATAAAAA [CACACA_site6954] | 9.41 ± 0.55 |
| ATATATATATATATAAAGTGAAGTATGAGGGAAATA [XGTACX_negctrl_site497] | 9.13 ± 0.45 |
| TTATTATTTTATAACACACACATATAGATTATAGCT [CACACA_site6787] | 9.15 ± 0.33 |
| TTTTGTATTTATGGATGTACATAATATGTTTTAAAC [XGTACX_site3278] | 8.77 ± 0.4 |
| AAAAATTAAATATAAAGTACAAAATTAAAATCTTAA [XGTACX_site931] | 8.53 ± 0.45 |
| TATGTATGTATTAATGCGCACACAAAAAATAACAAT [CACACA_site8551] | 9.37 ± 0.3 |

| Sequence | gcPBM binding intensity (ln) |
| --- | --- |
| TTTCCATATATAGAACGTACAAAGATCTTTGTTACT [XGTACX_site8972] | 8.68 ± 0.47 |
| ATACATATATATATGTGTACATATTATATATACATA [XGTACX_site8420] | 8.85 ± 0.38 |
| TATATATGGTATAATTGTACTAACGCCAACTATACC [XGTACX_site5853] | 8.8 ± 0.47 |
| TATATATATTTATACACACAAACATAATACTACTTA [CACACA_site2022] | 8.86 ± 0.35 |
| TAGCTTTTGCCTTTTTTTAAAAAAAAATAAATAAAT [TGCATGCA_negctrl_site242] | 8.06 ± 0.31 |
| TTTTTTTTTATGTGCACACAAAAGATGCTTATATTT [CACACA_site2348] | 9.14 ± 0.28 |
| TGCATATACATATGTAGTACAATAATTTGAAAAAAA [XGTACX_site5239] | 8.77 ± 0.4 |
| ATAAATATATGAAATATACACACTTCTTTGGTATTA [CACACA_site456] | 8.78 ± 0.43 |
| TTTCGTAACTATTTGTGTACATATATATATATATAT [XGTACX_site2920] | 9.37 ± 0.3 |
| ATTTTCTTTTCCATAGTGCAATATAATTATCCATCA [GTGCAC_site9547] | 8.74 ± 0.41 |
| ATTTTGTGCGCACACACATGCAAAAAGAAATATGAT [TGCATGCA_site261] | 9.5 ± 0.33 |
| AAAGAGAGTATCTAATGTACGTATGTATGTATATAT [XGTACX_site1780] | 8.96 ± 0.52 |
| TATTATATATTAAATGCATGTAAAAATAATATTAAA [TGCATGCA_site643] | 8.48 ± 0.47 |
| AATTATTTACCCTATACACACAAAACACGCTAAAAA [CACACA_site1211] | 9.17 ± 0.23 |
| ATATTATAATAAATGTGTACATATTGTAGAAATATT [XGTACX_site8101] | 8.94 ± 0.49 |
| ATAAATACACACAAGTGTACATACTTCTATAAATAT [XGTACX_site1845] | 9.08 ± 0.33 |
| ATCGTGAATAATATCTGTACATATGAACACATATAT [XGTACX_site952] | 9.04 ± 0.49 |
| TCACATACATGAAAATGTACTTTTATAATTCCATAA [XGTACX_site1836] | 8.55 ± 0.41 |
| GTTATAAATAAATACACACATACAAAAATATGACGT [CACACA_site1154] | 9.25 ± 0.3 |
| ATATAAAATACATGGGTGCAATATATTAAACAAATA [GTGCAC_site9421] | 8.91 ± 0.47 |
| TATGACCTTAGAAATTGTACAAGAAAAAATGTTACA [XGTACX_site7084] | 8.59 ± 0.54 |
| TCTGTAAATACGTGCACACACAAATCACAAATGTGA [CACACA_site330] | 9.21 ± 0.27 |

| Sequence | gcPBM binding intensity (ln) |
| --- | --- |
| TAAATAATTTCACGAATGACAAAGATATAATAAGTT [CACACA_negctrl_site1430] | 8.71 ± 0.45 |
| TAAAGGTGAACAATACGTACATAAGAACTTATGAGG [XGTACX_site4216] | 8.94 ± 0.4 |
| ATATATATTTTTTAAACACACACATAAATATTTGTG [CACACA_site8936] | 9.18 ± 0.4 |
| AATACACAAATATATTGTACATATATATATATATAT [XGTACX_site2440] | 9.77 ± 0.16 |
| ACTTATTATTAATATTGTACTCTTGAAAATTGTGGA [XGTACX_site6315] | 8.57 ± 0.49 |
| CATATATAAATATAAATATATATATATATATATATG [XGTACX_negctrl_site493] | 8.82 ± 0.32 |
| ATATATATATATATATGTACATATGTATATTTTTTT [XGTACX_site1299] | 9.77 ± 0.44 |
| TTCTTCAAGGAAAACACATGCGCATTTTCACCAATT [TGCATGCA_site11] | 8.98 ± 0.43 |
| AAAATTATAATAATATGTACTTAAAAAATTTATATA [XGTACX_site632] | 8.35 ± 0.51 |
| TATATATATATATGTGCATGTTCCCCATGCTTCCAT [TGCATGCA_site366] | 9.86 ± 0.11 |
| AATATATATATATATAGTACATATTTTTATTCATTA [XGTACX_site2156] | 8.8 ± 0.28 |
| TATATGTATTTATATACACACATATTCTTTTGACAC [CACACA_site1206] | 9.13 ± 0.36 |
| TTTAAACAAGGATCCACACACCCCAAAAAAAAAAGA [CACACA_site680] | 9.26 ± 0.4 |
| TTTTTATTTTTGTAGTGTACTTTATTTTTTTTGTTT [XGTACX_site8887] | 8.89 ± 0.57 |
| TATATATATATATACACACACACACCCATATATATA [CACACA_site2538] | 10.2 ± 0.3 |
| CTGTATTCATAATTCACACAAATGGTTTATATGAAT [CACACA_site4315] | 8.71 ± 0.47 |
| CATACATACAGATATACACACATATATAATAATATA [CACACA_site5477] | 9.27 ± 0.37 |
| CATATTTGCACTTTCACACATAAATATATAACTATA [CACACA_site6016] | 8.9 ± 0.41 |
| TTACAAATGGTTTACACACACATAATTGTATCAATT [CACACA_site4167] | 9.24 ± 0.24 |
| TAATATATGAGAAATTGTACAGAAAGGAATATGCTT [XGTACX_site5300] | 8.79 ± 0.37 |
| TATATATGTTCAATATGTACATATATATAAGTGTAT [XGTACX_site5157] | 8.79 ± 0.41 |
| ATATTATTGTAGAAATGTACATATATATATATATAT [XGTACX_site1882] | 9.73 ± 0.32 |
